# From a collection of fitness landscapes (doi:10.1126/science.1257360)
# The other results are listed elsewhere or left out.
# B1: PhoQ; a variant is named by its letters at X, in order, P23837 (parent)
# chain: MKKLLRLFFPLSLRVRFLLATAAVVLVLSLAYGMVALIGYSVSFDKTTFRLLRGESNLFYTLAKWENNKLHVELPENIDKQSPTMTLIYDENGQLLWAQRDVPWLMKMIQPDWLKSNGFHEIEADVNDTSLLLSGDHSIQQQLQEVREDDDDAEMTHSVAVNVYPATSRMPKLTIVVVDTIPVELKSSYMVWSWFIYVLSANLLLVIPLLWVAAWWSLRPIEALAKEVRELEEHNRELLNPATTRELTSLVRNLNRLLKSERERYDKYRTTLTDLTHSLKTPLXXLQXXLRSLRSEKMSVSDAEPVMLEQISRISQQIGYYLHRASMRGGTLLSRELHPVAPLLDNLTSALNKVYQRKGVNISLDISPEISFVGEQNDFVEVMGNVLDNACKYCLEFVEISARQTDEHLYIVVEDDGPGIPLSKREVIFDRGQRVDTLRPGQGVGLAVAREITEQYEGKIVAGESMLGGARMEVIFGRQHSAPKDE
# Variants of: B1
# Assay: enrichment ratio after two sorts for PhoP signalling (ratio (wild type AVST 3.29)); higher = more functional
# Conditions: with PhoP (E. coli)
row,Variant,enrichment ratio
1,IKVF,≤ 0.25
2,SPWQ,≤ 0.25
3,EDHM,≤ 0.25
4,MDLV,≤ 0.25
5,FKMA,≤ 0.25
6,FGDR,≤ 0.25
7,QDWH,≤ 0.25
8,EVYY,≤ 0.25
9,FDKR,≤ 0.25
10,WFGI,≤ 0.25
11,HQDR,≤ 0.25
12,APMG,≤ 0.25
13,HNIS,≤ 0.25
14,KYND,≤ 0.25
15,MYQF,≤ 0.25
16,HVIK,≤ 0.25
17,VNMW,≤ 0.25
18,SIVQ,2.45
19,VHGQ,≤ 0.25
20,QVSA,≤ 0.25
21,DHPD,≤ 0.25
22,WASR,≤ 0.25
23,TCLR,2.06
24,FPEQ,≤ 0.25

row,Variant,enrichment ratio
1,AKLP,≤ 0.25
2,EWTC,≤ 0.25
3,WEKH,≤ 0.25
4,YNSS,≤ 0.25
5,VGAS,≤ 0.25
6,VYKE,≤ 0.25
7,THCG,5.77
8,AFLT,≤ 0.25
9,HCMM,≤ 0.25
10,EDFG,≤ 0.25
11,YDKE,≤ 0.25
12,GGTI,4.18
13,DLFD,0.45
14,MLIY,≤ 0.25
15,PFWY,≤ 0.25
16,LMAW,≤ 0.25
17,AQAQ,10.5
18,PQRG,≤ 0.25
19,KRSK,≤ 0.25
20,NYRM,≤ 0.25
21,SAWH,≤ 0.25
22,INLI,3.06
23,PLPQ,≤ 0.25
24,YYPP,≤ 0.25

row,Variant,enrichment ratio
1,FPDI,≤ 0.25
2,ASFL,3.62
3,TTGM,28.6
4,DLLV,≤ 0.25
5,WTSD,≤ 0.25
6,LSNW,≤ 0.25
7,WHTL,≤ 0.25
8,VSEA,≤ 0.25
9,LMNC,≤ 0.25
10,HQGY,≤ 0.25
11,LMQV,≤ 0.25
12,NGQG,≤ 0.25
13,FLSQ,≤ 0.25
14,YHQC,≤ 0.25
15,HGYG,≤ 0.25
16,EWTW,≤ 0.25
17,PYWD,≤ 0.25
18,LRTS,≤ 0.25
19,MSME,≤ 0.25
20,IHVV,≤ 0.25
21,IQIR,≤ 0.25
22,SVMN,6.82
23,YNSH,≤ 0.25
24,EHNM,≤ 0.25

row,Variant,enrichment ratio
1,SPRI,≤ 0.25
2,YRHL,≤ 0.25
3,FQPS,≤ 0.25
4,NLGS,≤ 0.25
5,LWEM,≤ 0.25
6,RIKA,≤ 0.25
7,HERC,≤ 0.25
8,YKML,≤ 0.25
9,PCMP,≤ 0.25
10,YVCY,≤ 0.25
11,FREE,≤ 0.25
12,NYKY,≤ 0.25
13,FQLN,9.96
14,NLDG,≤ 0.25
15,ACDY,≤ 0.25
16,IQQW,≤ 0.25
17,EFIG,≤ 0.25
18,SHDK,≤ 0.25
19,RMYF,≤ 0.25
20,YPYD,≤ 0.25
21,YNWE,≤ 0.25
22,AQPG,≤ 0.25
23,SGGD,≤ 0.25
24,YGIG,≤ 0.25

row,Variant,enrichment ratio
1,LLCC,≤ 0.25
2,HRPA,≤ 0.25
3,KDMI,≤ 0.25
4,WLRE,≤ 0.25
5,QSGI,4.66
6,ANQN,≤ 0.25
7,KEPY,≤ 0.25
8,TRDM,≤ 0.25
9,YTGQ,≤ 0.25
10,HYNA,≤ 0.25
11,VKKD,≤ 0.25
12,RIGG,≤ 0.25
13,EVTD,≤ 0.25
14,RDAP,≤ 0.25
15,FVII,≤ 0.25
16,LQLE,≤ 0.25
17,LPDR,≤ 0.25
18,ILIF,≤ 0.25
19,TTTW,5.99
20,SDNS,≤ 0.25
21,TWSC,≤ 0.25
22,PANR,≤ 0.25
23,GMCA,≤ 0.25
24,GDVK,≤ 0.25

row,Variant,enrichment ratio
1,TSCY,10.7
2,YDMI,≤ 0.25
3,QKPP,≤ 0.25
4,GGHS,≤ 0.25
5,GSDN,≤ 0.25
6,VYFS,≤ 0.25
7,GFVT,≤ 0.25
8,YLDF,≤ 0.25
9,LHRM,≤ 0.25
10,YFRE,≤ 0.25
11,RTCG,≤ 0.25
12,SLCD,17.9
13,FMRR,≤ 0.25
14,FCVA,≤ 0.25
15,NGVT,≤ 0.25
16,SDTH,≤ 0.25
17,RWMF,≤ 0.25
18,VSQL,≤ 0.25
19,VELD,≤ 0.25
20,NICY,≤ 0.25
21,VSLT,2.72
22,PKEK,≤ 0.25
23,GDSR,≤ 0.25
24,PGAA,≤ 0.25

row,Variant,enrichment ratio
1,QNKI,≤ 0.25
2,MYDG,≤ 0.25
3,KLDW,≤ 0.25
4,FAEF,≤ 0.25
5,QRPH,≤ 0.25
6,GMVI,1.93
7,LSRD,≤ 0.25
8,LNEN,≤ 0.25
9,YHWY,≤ 0.25
10,AQGR,≤ 0.25
11,EAAF,≤ 0.25
12,VIRP,≤ 0.25
13,WTPK,≤ 0.25
14,YEMV,2.64
15,GEWH,≤ 0.25
16,TMFY,≤ 0.25
17,YNLS,0.487
18,LSAD,≤ 0.25
19,KNGS,≤ 0.25
20,PPQY,≤ 0.25
21,SHES,≤ 0.25
22,QTVC,≤ 0.25
23,LLVH,≤ 0.25
24,ISRQ,≤ 0.25

row,Variant,enrichment ratio
1,FKYC,≤ 0.25
2,SDFH,≤ 0.25
3,PSQI,≤ 0.25
4,YKNA,≤ 0.25
5,PPEP,≤ 0.25
6,MQAS,8.02
7,IQWY,≤ 0.25
8,QKRM,≤ 0.25
9,FLKC,≤ 0.25
10,DIPF,≤ 0.25
11,KTRM,≤ 0.25
12,NFYF,≤ 0.25
13,AWFV,≤ 0.25
14,DFAI,≤ 0.25
15,MSLS,5.72
16,ETAH,≤ 0.25
17,TDMM,11
18,ATAC,≤ 0.25
19,APIR,≤ 0.25
20,EAGH,≤ 0.25
21,TWKT,≤ 0.25
22,QCHR,≤ 0.25
23,ADHE,≤ 0.25
24,PNQM,≤ 0.25

row,Variant,enrichment ratio
1,LCLS,≤ 0.25
2,WSKV,≤ 0.25
3,DSYR,≤ 0.25
4,FHWC,≤ 0.25
5,IEHS,≤ 0.25
6,NRFS,≤ 0.25
7,HRKS,≤ 0.25
8,PVFN,≤ 0.25
9,LDQF,≤ 0.25
10,SAPC,≤ 0.25
11,WMPI,≤ 0.25
12,NLMW,≤ 0.25
13,NSPY,≤ 0.25
14,KAGK,≤ 0.25
15,KDIS,≤ 0.25
16,GIYD,≤ 0.25
17,EIDN,≤ 0.25
18,HYPS,≤ 0.25
19,KSTM,≤ 0.25
20,IYKN,≤ 0.25
21,KITD,≤ 0.25
22,QWHR,≤ 0.25
23,VHKT,≤ 0.25
24,VNCK,≤ 0.25

row,Variant,enrichment ratio
1,SQTS,11.8
2,KVFY,≤ 0.25
3,PPRQ,≤ 0.25
4,FSMW,≤ 0.25
5,PMNI,≤ 0.25
6,SWHD,≤ 0.25
7,NGVM,≤ 0.25
8,EFCG,≤ 0.25
9,TKKW,≤ 0.25
10,EDRQ,≤ 0.25
11,WHAL,≤ 0.25
12,TQIW,≤ 0.25
13,MSKT,≤ 0.25
14,YVYW,≤ 0.25
15,LKVT,≤ 0.25
16,DSEY,≤ 0.25
17,PSRG,≤ 0.25
18,CLAC,≤ 0.25
19,EISV,≤ 0.25
20,WFYE,≤ 0.25
21,ATAK,4.57
22,FDRC,≤ 0.25
23,KNWL,≤ 0.25
24,YLFV,≤ 0.25

row,Variant,enrichment ratio
1,VRAE,≤ 0.25
2,VLLQ,≤ 0.25
3,GWDA,≤ 0.25
4,FIPE,≤ 0.25
5,MWTL,≤ 0.25
6,RSEP,≤ 0.25
7,VHYP,≤ 0.25
8,NTHW,≤ 0.25
9,CQLH,27.9
10,MYNP,0.52
11,DTKT,≤ 0.25
12,CHVH,≤ 0.25
13,IRNG,≤ 0.25
14,PFSY,≤ 0.25
15,QVQH,≤ 0.25
16,KLWC,≤ 0.25
17,DFCR,≤ 0.25
18,FGQQ,≤ 0.25
19,QHNG,6.46
20,LGHW,≤ 0.25
21,HCPD,≤ 0.25
22,PCAK,≤ 0.25
23,PYNI,≤ 0.25
24,VLCF,≤ 0.25

row,Variant,enrichment ratio
1,VQYM,≤ 0.25
2,ASNG,≤ 0.25
3,GHIK,≤ 0.25
4,MDFY,≤ 0.25
5,SNPL,≤ 0.25
6,NIGH,≤ 0.25
7,PANF,≤ 0.25
8,IISV,≤ 0.25
9,YENF,≤ 0.25
10,NYMF,≤ 0.25
11,RWYP,≤ 0.25
12,WVFY,≤ 0.25
13,SKRI,≤ 0.25
14,PDSQ,≤ 0.25
15,MAPN,≤ 0.25
16,RLKP,≤ 0.25
17,VCDL,≤ 0.25
18,RTTF,≤ 0.25
19,VQWW,≤ 0.25
20,FDKL,≤ 0.25
21,FNHR,≤ 0.25
22,PMKY,≤ 0.25
23,IFIQ,≤ 0.25
24,QQSL,4.22

row,Variant,enrichment ratio
1,FWWD,≤ 0.25
2,NIPS,≤ 0.25
3,TSMT,11
4,VEGN,≤ 0.25
5,NYAT,≤ 0.25
6,NRCR,≤ 0.25
7,EENM,≤ 0.25
8,DKKK,≤ 0.25
9,MGDL,≤ 0.25
10,TFNV,≤ 0.25
11,DMVW,≤ 0.25
12,MQAR,≤ 0.25
13,HLFW,≤ 0.25
14,VDRD,≤ 0.25
15,HLFE,≤ 0.25
16,MEQV,≤ 0.25
17,VTHG,≤ 0.25
18,PMCL,≤ 0.25
